Test results published in ChEMBL document CHEMBL4888484, “Replenishing the malaria drug discovery pipeline: Screening and hit evaluation of the MMV Hit Generation Library 1 (HGL1) against asexual blood stage Plasmodium falciparum ,using a nano luciferase reporter read-out” (2022).
The whole screen tested about 150,000 compounds, of which about 540 (0.36%) showed an effect of 50% or more. The list shows a part of the results.

Each compound was assayed on Plasmodium falciparum (assay: Primary screen in NF54 nanoGlo assay, in single point, at 2uM, 72h; a lower Z score goes with more inhibition). Settings: timepoint 72 hour.
Type: functional, Erythrocyte
In the case of COc1ccc(-c2noc(CCCC(=O)Nc3cccnc3)n2)cc1OC, the “% Inhibition” value is reported as -9% and the Z score is reported as 1.06. With CCCn1nnnc1COC(=O)c1ccc2nccnc2c1 the “% Inhibition” value was -18% and the Z score was 2.94. CCCNC(=O)CN(C)c1nnc(N2CCCC2=O)s1 was tested, and the “% Inhibition” value was -5% and the Z score was 1. With Nc1ccnc(C(=O)N2CCO[C@H]3CCCC[C@@H]32)c1 the “% Inhibition” value was -19% and the Z score was 4.05. In the case of O=C1CCC(Cn2nnc(C3CC3)n2)CC1, the “% Inhibition” value is reported as -11% and the Z score is reported as 1.38. For Cc1cc(C(=O)NC[C@@]23CCCC=C2N(C)C(=O)CC3)n(C)n1, the “% Inhibition” value was -12% and the Z score was 1.77. For Cc1ccc(C(=O)Cc2nnn(-c3ccccc3)n2)cc1, the “% Inhibition” value was 5% and the Z score was -0.92. In the case of COc1nn(C)cc1NC(=O)NC1(C)C(C)(C)C1(C)C, the “% Inhibition” value is reported as 3% and the Z score is reported as -0.5. O=c1[nH]nc(-c2ccccc2-c2ccccc2)[nH]1 was tested, and the “% Inhibition” value was 3% and the Z score was -0.53. For CC(=O)N[C@H]1[C@H](c2ccccc2)N(Cc2ccc(S(C)(=O)=O)cc2)CC[C@@]1(C)O, the “% Inhibition” value was 11% and the Z score was -1.7. In the case of COc1cc(=O)c(C(=O)N2CCC(C(N)=O)CC2)nn1-c1ccc(F)c(F)c1, the “% Inhibition” value is reported as 38% and the Z score is reported as -1.31. O=C(c1nnc2n1CCCC2)N1CCN(Cc2ccc3c(c2)OCO3)CC1 was tested, and the “% Inhibition” value was -11% and the Z score was 1.8. With O=C(C[C@H]1CCCO1)N1Cc2cnnn2Cc2ccccc21 the “% Inhibition” value was -13% and the Z score was 1.68. For CC(C)c1nncn1CCNC(=O)c1ccc(Cl)cn1, the “% Inhibition” value was -1% and the Z score was 0.17. With CC(C)c1cc(N2CCC[C@H](N(C)C)CC2)nc(C(F)(F)F)n1 the “% Inhibition” value was -15% and the Z score was 1.48. For C=C(C)CN(CC)C(=O)c1cccc(-c2c[nH]c(C(=O)N3CCOCC3)c2)c1, the “% Inhibition” value was 13% and the Z score was -2.35. For COc1c(C)cc(C(=O)N2CCc3onc(-c4ccccc4)c3C2)cc1C, the “% Inhibition” value was -4% and the Z score was 0.61. With C[C@@H](Cn1cncn1)Nc1nnc(-c2ccccc2)s1 the “% Inhibition” value was -4% and the Z score was 0.45. For COc1ccccc1NC(=O)c1oc2ccccc2c1NC(=O)c1cccc2ccccc12, the “% Inhibition” value was -8% and the Z score was 1.45. In the case of Cc1ccc(C)c(N2CCN(S(=O)(=O)c3c(C(=O)N4CCCC4)c(C)n(C)c3C)CC2)c1, the “% Inhibition” value is reported as -4% and the Z score is reported as 0.76. In the case of COc1ccc(-c2noc(C3CCC4(CC3)NC(=O)NC4=O)n2)cc1OC (configuration not stated), the “% Inhibition” value is reported as -4% and the Z score is reported as 0.64. In the case of Cc1c(CC(=O)NCCCN)c2c(n1Cc1ccc(F)cc1)CCCC2=O, the “% Inhibition” value is reported as 0% and the Z score is reported as 0.09. CC(c1ccccc1)C1CCCCCN1Cc1nc(C(=O)O)co1 (configuration not stated) was tested, and the “% Inhibition” value was -8% and the Z score was 1.43. With COc1ccc(S(=O)(=O)NC[C@H]2CCC[C@@H]2O)cn1 the “% Inhibition” value was -13% and the Z score was 1.78. In the case of CC(=O)N1CCN(C(=O)NC2CCCCCC2)CCC12CCOCC2, the “% Inhibition” value is reported as 6% and the Z score is reported as -0.87. For c1ccc(-c2nc3nc(-c4ccc(-c5cn6nc(-c7ccccc7)c(-c7ccccc7)nc6n5)cc4)cn3nc2-c2ccccc2)cc1, the “% Inhibition” value was -8% and the Z score was 1.07. With O=C(O)[C@@H]1CCC[C@@H]1NCc1cn(Cc2ccccc2)c2ccccc12 the “% Inhibition” value was 6% and the Z score was -0.85. For Cc1n[nH]c(N2CCN(S(=O)(=O)C3CCC(F)(F)CC3)CC2)n1, the “% Inhibition” value was -2% and the Z score was 0.36. For CC[C@@H](C(=O)OC(C)(C)C)N1CCS(=O)(=O)C(C)(C)C1, the “% Inhibition” value was 0% and the Z score was 0.07. For CC(C)n1cnnc1CN1CCc2nocc2C1, the “% Inhibition” value was -1% and the Z score was 0.16. In the case of Cc1ccc(C(N)=O)c(NC(=O)c2ccoc2C2CC2)c1, the “% Inhibition” value is reported as 6% and the Z score is reported as -1.14. In the case of Cc1ccc2nc(-c3ccc(F)cc3)c(CN3CCNC(=O)CC3)cc2c1, the “% Inhibition” value is reported as -3% and the Z score is reported as 0.41. For Cc1c(C(=O)NCc2n[nH]c3c2CCCCC3)ccn1C, the “% Inhibition” value was -12% and the Z score was 1.59. O=C(NCC#CCOc1ccc2c(c1)OCO2)c1cnccn1 was tested, and the “% Inhibition” value was 2% and the Z score was -0.28. With CC(C)C1N(C(=O)NC2CCC(=O)NC2C2CCCO2)CC12CC=CC2 (configuration not stated) the “% Inhibition” value was -6% and the Z score was 1.16. In the case of CCN(CC)CCNC(=O)N(C)Cc1noc(C2CCCC2)n1, the “% Inhibition” value is reported as 4% and the Z score is reported as -0.53. Cc1ccc(C2CCN(C(=O)c3cnn4c3CCC4)CC2)cn1 was tested, and the “% Inhibition” value was -9% and the Z score was 1.43. With COCCNc1ccccc1CNC(=O)c1nc2cccnc2s1 the “% Inhibition” value was -3% and the Z score was 0.28. For C[C@H](NC(=O)c1ccnnc1)C1=CCCCC1, the “% Inhibition” value was 3% and the Z score was -0.49. With CC(C)C[C@H](NC(=O)CCC1CCCCC1)C(N)=O the “% Inhibition” value was -4% and the Z score was 0.46. With CN(CCCOc1cccc(Cl)c1)C(=O)CCn1cnc2ccccc2c1=O the “% Inhibition” value was -6% and the Z score was 1.13. COCC(=O)N1CCN(C(=O)c2ccc(N(C)C)cc2)C[C@H]1C(=O)N[C@@H](CC1CCCCC1)C(N)=O was tested, and the “% Inhibition” value was -3% and the Z score was 0.49. With CC(=O)N1CCCC[C@H]1C(=O)Nc1cc(-c2ccncc2)ccc1C the “% Inhibition” value was -7% and the Z score was 1.31. In the case of CCCc1cc(C(=O)N[C@H]2CC[C@H](n3cnnc3)CC2)ccn1, the “% Inhibition” value is reported as -3% and the Z score is reported as 0.26. For CCCn1nc(-n2cnnc2)c(NS(=O)(=O)c2ccc(Br)cc2)c1C, the “% Inhibition” value was 38% and the Z score was -5.17. OC[C@H](CC(F)(F)F)Nc1ccc(Br)cn1 was tested, and the “% Inhibition” value was 2% and the Z score was -0.36. COCc1ncc(CN2CCC3(CC2)CN(CCC(C)C)C(=O)O3)cn1 was tested, and the “% Inhibition” value was -5% and the Z score was 0.87. For CCCN(Cc1ccc(-n2cccn2)cc1)[C@H]1CCS(=O)(=O)C1, the “% Inhibition” value was -4% and the Z score was 0.6. In the case of COc1cc(OC)cc(C(=O)N[C@@H](C)c2nnc3n2CCCCC3)c1, the Z score is reported as 1.34. With CN(Cc1nnnn1C)C1(C(N)=O)CCCC1 the “% Inhibition” value was -18% and the Z score was 2.2. For CCCc1nnc(N2C[C@@H](CN3CCCCCC3)[C@@H](CO)C2)s1, the “% Inhibition” value was -8% and the Z score was 1.49. In the case of CCS(=O)(=O)NC[C@](C)(OC)c1cccc(Cl)c1, the “% Inhibition” value is reported as 15% and the Z score is reported as -1.87. With Cc1cc(S(=O)(=O)N2CCC(c3cc[nH]n3)CC2)c(C)s1 the “% Inhibition” value was -4% and the Z score was 0.58. For Cc1[nH]c2ccccc2c1C(=O)N1CC[C@H](c2ncccn2)C1, the “% Inhibition” value was 3% and the Z score was -0.5.
